The supplement of paper PMC3334620
Whole data set: some 33,000 sequences, median “E-score (-0.5 to 0.5)” near -0.021, cut for the highest 2% near 0.32. This is one part of the list.

Biological target: T1, Zap1 (UniProt P47043)
T1 sequence: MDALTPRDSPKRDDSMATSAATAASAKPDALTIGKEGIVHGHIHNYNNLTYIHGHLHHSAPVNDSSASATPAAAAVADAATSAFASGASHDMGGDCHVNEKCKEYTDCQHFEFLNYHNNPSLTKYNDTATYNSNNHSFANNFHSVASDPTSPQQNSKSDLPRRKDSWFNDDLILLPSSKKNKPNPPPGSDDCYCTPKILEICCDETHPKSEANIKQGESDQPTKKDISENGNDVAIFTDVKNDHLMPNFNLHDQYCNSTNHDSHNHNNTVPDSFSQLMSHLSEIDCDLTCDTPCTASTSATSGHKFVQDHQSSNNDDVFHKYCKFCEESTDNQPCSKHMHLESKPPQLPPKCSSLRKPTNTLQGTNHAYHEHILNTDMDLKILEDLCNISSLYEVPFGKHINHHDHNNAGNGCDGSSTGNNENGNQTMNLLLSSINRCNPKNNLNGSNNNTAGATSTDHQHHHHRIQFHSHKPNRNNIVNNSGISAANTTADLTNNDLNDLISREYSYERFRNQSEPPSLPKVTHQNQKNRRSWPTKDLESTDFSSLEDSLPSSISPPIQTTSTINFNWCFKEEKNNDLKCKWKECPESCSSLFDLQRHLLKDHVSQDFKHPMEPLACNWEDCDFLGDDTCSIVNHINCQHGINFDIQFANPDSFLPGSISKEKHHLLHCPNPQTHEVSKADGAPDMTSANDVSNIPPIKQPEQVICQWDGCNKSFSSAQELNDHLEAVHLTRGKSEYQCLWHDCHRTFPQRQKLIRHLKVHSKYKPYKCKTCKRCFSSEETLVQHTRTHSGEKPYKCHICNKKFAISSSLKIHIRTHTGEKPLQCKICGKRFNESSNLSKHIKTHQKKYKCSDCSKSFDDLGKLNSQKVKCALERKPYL
Assay: PBM E-score (8-mer binding enrichment) (E-score (-0.5 to 0.5)); higher = stronger / more preferred TF binding; most listed sequences are background and not binding sites
Conditions: protein concentration: 200 nM; construct: GST-full length
Procedure, shortened: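 Universal all-10-mer Agilent arrays, double-stranded by primer extension on fresh or once-stripped slides, were probed with about 100-200 nM GST-tagged yeast transcription factors made by PURExpress. Fluorescent anti-GST detected bound protein, and masliner normalised the scans. E-scores from the Universal PBM Analysis Suite were given to each ungapped eight-base word pooled with its reverse complement.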

Sequence	PBM E-score
AAAAGGTC	0.367
CGAGTGGA	0.0384
CAACATGC	-0.185
CTGTTTTA	0.151
CCAATACC	0.162
GCACCGGA	-0.061
ATCCAAAC	0.14
CGGCGCGC	-0.035
AACCAGCC	0.0429
AGATTCAC	-0.207
CATCAGCG	-0.182
CAAAAAAA	0.312
TACGCTAA	0.0172
ACGTGTTC	-0.173
TATATGGA	-0.0219
AGTTCCAC	0.0816
AACCCCTC	0.353
ACCTTCCT	-0.0167
CCGTAGAC	-0.13
CAATAACG	0.138
CCAAGTGG	-0.0228
TATATTCA	0.0295
GTATTGCA	-0.136
CCCGATAA	-0.004
TCTGTGAA	0.0856

Sequence	PBM E-score
CAGTTATA	0.0691
TAGTACCA	0.163
CGCTCGGA	0.0163
CTAGTCGC	-0.254
CTAGACAA	-0.00796
CAGGAACA	-0.013
ACAGCAAG	0.0466
ACGGCCCC	-0.0345
AGGGGGGC	-0.42
GACGTGAA	0.0444
GAAGCGGC	-0.196
AACTAGCC	-0.0594
TCCGTCAA	0.0264
ATAACTTG	0.107
ATTTACAA	0.129
AATAACCG	0.421
AATTTCAG	-0.123
CCTTGCCC	-0.121
AGCCAAGG	-0.00722
AAAACTTA	0.104
TCACAGGA	-0.0922
CCATCTTC	-0.0575
TACATATA	0.225
AGACTAGA	-0.125
TGTTGTAA	0.159

Sequence	PBM E-score
ACACCAAC	0.0702
GGTCCGAA	0.123
ACGCTACA	-0.022
GCGGAACC	0.274
CCCGAGTC	0.0118
CCGCGCCG	0.0339
ATGATGCG	-0.0528
CAACGTGA	-0.0407
TACGTTCA	0.0801
AATCCTTC	-0.218
CACACCAC	0.195
GTTTGTTA	0.131
ATGCGCGG	-0.0462
AAACTGCG	-0.0606
ATTGATCG	0.0326
ATGGCAGA	-0.0886
CTAGTACC	0.0962
ACGAGAAG	-0.0992
GTAGGATA	-0.116
AATCCACG	0.006
ATGAAGTC	-0.169
TAAGCATA	0.0573
AATATAAC	0.218
AAATGGTT	0.298
CGCCCGAC	-0.0796

Sequence	PBM E-score
CAGTCCAA	-0.103
ACACGAGA	0.0148
ATGGGCCA	0.0896
CATACTCG	-0.0343
AGACAGCA	-0.0987
ACCGAAAG	0.117
AAGTGTTA	0.096
TACTACAA	0.126
AGCGGACA	0.0351
ACATAAAC	0.211
TCGCCAGA	-0.112
ATTAACGC	-0.124
AATAAACC	0.154
CTACTCGA	-0.105
AATTAGCA	-0.00754
TCACCGAA	0.181
ACGTGATA	-0.139
AAAAAAGA	0.207
AGTCGACG	0.0342
GCCGTGAA	0.0645
TGGCGCAA	-0.0873
ATTAACTC	0.0519
AGAGCACC	-0.0101
GGTGTCTA	0.0852
AGATTAAG	0.0817

Sequence	PBM E-score
GGGTGAAA	0.208
AGGGTAGC	0.313
ATATCTCG	0.00536
CATGCGTC	-0.256
AGCCGAGC	-0.27
GAGCGAAC	-0.268
GAGCGTCA	-0.17
CGGTATGA	0.0503
TCAATACA	0.196
AGCGAGTG	-0.0427
AAGAGTCA	0.0989
AATGAAAG	0.0755
ATAACACC	0.137
GTGTGCTA	0.0307
CGTACGGA	0.00356
ACTATACC	0.228
AAGTTACT	-0.0263
GTTGACCA	0.177
CCTAGAGG	0.366
ATAAGCAG	-0.0311
ACCCGGGC	0.0212
GCACGTCC	-0.136
ATCCTCGC	-0.0781
CGCGCGCA	0.18
AACGGGAC	-0.179

Sequence	PBM E-score
TGTTCTAA	0.18
CACCCCGA	0.0683
ATTTAAAG	0.121
AATAAGGA	-0.00733
AGTTGGCA	-0.0991
ACTTCACT	-0.144
GCAATGAA	-0.0227
GTGATAGA	0.0338
GCGGAAGC	-0.111
CTGGGACC	-0.191
CCGCGATC	0.103
CATTCCAC	-0.0174
AACCATAG	0.16
ACTGTGAC	0.197
GGCAAGCA	-0.254
CTGCTCAA	-0.0635
AACTCCAG	-0.137
GGCTTAGA	-0.11
ATCCAAGG	-0.0939
GGATGACA	-0.154
ACAGTCGG	0.00691
CTTAGTTA	0.0283
TAACACGA	0.0984
AGTCCTAA	-0.012
TGGACTAA	-0.111

Sequence	PBM E-score
AGCAAAAA	0.19
ACACACGT	-0.0511
CAATGTCA	0.0332
ACTATCGG	-0.122
CTTCCGTA	0.033
ACGTAATC	0.116
CCGAGGCG	0.0801
TCACGGCA	-0.102
ATGGATTC	-0.0696
AACCCCGG	0.337
ACCCCTGA	0.28
ACTCTGTG	-0.132
CCACATCA	0.039
AAGGTCAT	0.444
AAAAAAGT	0.159
CTGTAACA	0.00661
CGGTGCCC	0.0776
AATTGAGT	0.0567
GTCAGTGA	0.143
TCCGATCA	0.0772
ACATATAT	0.0326
ACGACGGC	-0.351
